{
  "source": "ChEMBL document CHEMBL4888484",
  "about": "“Replenishing the malaria drug discovery pipeline: Screening and hit evaluation of the MMV Hit Generation Library 1 (HGL1) against asexual blood stage Plasmodium falciparum ,using a nano luciferase reporter read-out” (2022)",
  "note": "Out of some 150,000 compounds screened, about 540 (0.36%) showed an effect of 50% or more. Some of the results follow.",
  "data": [
    {"system": "Plasmodium falciparum", "test": "Primary screen in NF54 nanoGlo assay, in single point, at 2uM, 72h; a lower Z score goes with more inhibition", "format": "functional, Erythrocyte", "conditions": "timepoint 72 hour", "units": {"% Inhibition": "%"}, "values": [
      {"smiles": "CC(C)N(C)Cc1nc(-c2ccc3cncn3c2)no1", "% Inhibition": -17, "Z score": 1.87},
      {"smiles": "COC(=O)c1ccc(C(=O)N2CCC(N3CCC(Oc4ccccc4F)CC3)CC2)cc1", "% Inhibition": -14, "Z score": 1.79},
      {"smiles": "CN(C)c1ccc(NC(=O)c2ccccc2C(=O)c2ccc(Cl)cc2)cc1", "% Inhibition": -30, "Z score": 3.51},
      {"smiles": "Cc1ccc(OCCC(=O)NCc2cnn(CCO)c2)cc1C", "% Inhibition": 10, "Z score": -2.09},
      {"smiles": "O=C(NCc1ccccn1)C1CCC(CNS(=O)(=O)c2ccc(F)cc2)CC1", "note": "(configuration not stated)", "% Inhibition": -8, "Z score": 1.04},
      {"smiles": "Cc1cnccc1NC(=O)N1CCC(CCCN2CCOCC2)CC1", "% Inhibition": 3, "Z score": -0.28},
      {"smiles": "Cn1nccc1CCNS(=O)(=O)CCc1ccc2c(c1)CCO2", "% Inhibition": 2, "Z score": -0.25},
      {"smiles": "O=C(Cc1ccc(F)c(F)c1)Nc1ccc(O)nn1", "% Inhibition": -14, "Z score": 1.42},
      {"smiles": "CC(C)Oc1ccc(-c2nc3ccc(-c4ccc5c(c4)OCO5)cc3o2)cc1", "% Inhibition": -20, "Z score": 1.74},
      {"smiles": "CN1C(=O)Cc2cc(-c3csc(COc4ccc(Cl)cc4)n3)ccc21", "% Inhibition": 1, "Z score": -0.05},
      {"smiles": "C[C@@H](c1ccccc1)n1cc(NC(=O)N2CCN(Cc3nc[nH]n3)CC2)cn1", "% Inhibition": -5, "Z score": 0.61},
      {"smiles": "CN(Cc1cnccn1)C(=O)[C@H](Cc1ccccc1)N(C)C", "% Inhibition": -8, "Z score": 1.56},
      {"smiles": "COc1ccccc1NC(=O)C[C@@H]1Oc2ccccc2N=C1O", "% Inhibition": 31, "Z score": -3.46},
      {"smiles": "C[C@H](O)CN(C)C(=O)NCCc1cc(F)c(F)c(F)c1", "% Inhibition": -9, "Z score": 0.88},
      {"smiles": "O=C(c1cncc(-c2ccc3c(c2)OCO3)n1)N1CCOCC1", "% Inhibition": 5, "Z score": -1.02},
      {"smiles": "CN(C)C(=O)C1CCC(CNC(=O)c2cc(Cl)c[nH]2)O1", "note": "(configuration not stated)", "% Inhibition": -6, "Z score": 0.58},
      {"smiles": "Cc1ccc(-n2cc(-c3noc(C(=O)Nc4cccc(Cl)c4)n3)nn2)cc1", "% Inhibition": -2, "Z score": 0.42},
      {"smiles": "O=C(NCc1cnc2cnccn12)[C@H]1CC12CCCCC2", "% Inhibition": 7, "Z score": -1.36},
      {"smiles": "CC1CC(C)CN(S(=O)(=O)N2CCCC(C(=O)NC3CCCCCCC3)C2)C1", "note": "(configuration not stated)", "% Inhibition": -4, "Z score": 0.65},
      {"smiles": "O=S1(=O)CCC2(CC1)C[C@@H]2c1nc(-c2cscn2)no1", "% Inhibition": 3, "Z score": -0.41},
      {"smiles": "COc1ccc(C)cc1NC(=O)Cn1c(=O)cnc2cc(S(=O)(=O)N3CCCCC3)ccc21", "% Inhibition": -14, "Z score": 1.39},
      {"smiles": "Nc1ccnc([C@@H]2CCCN2S(=O)(=O)Cc2ccccc2)n1", "% Inhibition": 0, "Z score": 0.04},
      {"smiles": "CC[C@@H]1C[C@H]1NC(=O)c1cnc(C2=NC(C)(C(C)C)C(=O)N2)c(O)c1", "note": "(some centres not stated)", "% Inhibition": 5, "Z score": -0.69},
      {"smiles": "CC(C)(C)c1cc(CN2c3cc(Cl)ccc3CS2(=O)=O)no1", "% Inhibition": 8, "Z score": -0.99},
      {"smiles": "CCCN(CC(N)=O)c1nc(-c2ccc(C)cc2)no1", "% Inhibition": -8, "Z score": 1.09},
      {"smiles": "Cc1cnccc1CN(C)Cc1cc(C(C)C)n[nH]1", "% Inhibition": -8, "Z score": 1.55},
      {"smiles": "COc1cc2c(C(=O)N3CCCCC3)c(CN3CCCCC3)n(C)c2cc1Br", "% Inhibition": 9, "Z score": -1.46},
      {"smiles": "Cc1c(CNCC2(N3CCCCC3)CCOCC2)cc(C#N)n1C", "% Inhibition": 7, "Z score": -1.06},
      {"smiles": "CCOc1cc(C(=O)N[C@H](C#N)c2cnn(-c3ccccc3)c2)ccn1", "% Inhibition": -2, "Z score": 0.47},
      {"smiles": "Cc1nc(CNc2cccc(CN3CCNC(=O)C3)c2)sc1C", "% Inhibition": -13, "Z score": 2.08},
      {"smiles": "CN(C)c1ccc(NC(=O)C2CCC2)cc1CN(Cc1cccc(F)c1)C(=O)c1ccco1", "% Inhibition": -14, "Z score": 1.25},
      {"smiles": "COc1cc(C(=O)N2CC[C@@]3(C2)NC(=O)NC3=O)ccc1C(F)(F)F", "% Inhibition": -2, "Z score": 0.2},
      {"smiles": "O=C1NC(c2nc(-c3ccccc3)cs2)N2CCCCC12", "note": "(configuration not stated)", "% Inhibition": 0, "Z score": 0},
      {"smiles": "CC1CCC(C(C)C)c2nn(C(=O)C(C)C(c3ccccc3)c3ccccc3)c(-c3ccccc3)c21", "note": "(configuration not stated)", "% Inhibition": 9, "Z score": -1},
      {"smiles": "Cc1c[nH]c(CN(C)CCC(=O)Nc2ccsc2C(=O)O)n1", "% Inhibition": -12, "Z score": 1.53},
      {"smiles": "CC(=O)Nc1ccc(N2C(=O)[C@@H]3C(Cc4c[nH]c5ccccc45)NC4(C(=O)Nc5c(C)cc(Cl)cc54)[C@@H]3C2=O)cc1", "note": "(some centres not stated)", "% Inhibition": -2, "Z score": 0.28},
      {"smiles": "CN(C)c1ccc(NC(=O)CCc2ccsc2)cn1", "% Inhibition": -8, "Z score": 1.18},
      {"smiles": "CC(=O)N[C@H](C)C(=O)N[C@H](CCC(=O)OCc1ccccc1)C(=O)OCc1ccccc1", "% Inhibition": -5, "Z score": 0.58},
      {"smiles": "Cc1ccc([C@H]2c3cc(OCc4nc(C(=O)N5CCCC5)co4)ccc3CCN2C(=O)C2CCCC2)cc1", "% Inhibition": -10, "Z score": 1.55},
      {"smiles": "Cc1cc(N2C[C@H](CN)C3(CCOCC3)C2)c2ccc(F)c(F)c2n1", "% Inhibition": -2, "Z score": 0.31},
      {"smiles": "O=C(Nc1ccc2ccccc2c1)c1cc2c(s1)CCC2", "% Inhibition": 3, "Z score": -0.34}
    ]}
  ]
}
